# In PubChem BioAssay (Tox21):
# “And” between values parts separate entries of the source, which are not always exact repeats. Equal values may be shown once. The inconclusive results got no clear call from the source; some entries with a clear call stand among them for comparison. A potency beside an inconclusive call is a rough fit, not a confirmed value. Some compounds were tested as several samples or in several runs, with calls that do not always agree. The source made the active and inactive calls. Unless noted, calls come from the whole dose curve; as a rule, active = well fitted inhibition curve with a large enough effect in the repeat runs; inconclusive = weak or mixed curves; inactive = no such curve, though single readings can be large or run the other way.
# Molecular target: Acetylcholinesterase (Homo sapiens) (UniProt P22303)
# Chain of UniProt P22303 (P22303 whole entry, looked up): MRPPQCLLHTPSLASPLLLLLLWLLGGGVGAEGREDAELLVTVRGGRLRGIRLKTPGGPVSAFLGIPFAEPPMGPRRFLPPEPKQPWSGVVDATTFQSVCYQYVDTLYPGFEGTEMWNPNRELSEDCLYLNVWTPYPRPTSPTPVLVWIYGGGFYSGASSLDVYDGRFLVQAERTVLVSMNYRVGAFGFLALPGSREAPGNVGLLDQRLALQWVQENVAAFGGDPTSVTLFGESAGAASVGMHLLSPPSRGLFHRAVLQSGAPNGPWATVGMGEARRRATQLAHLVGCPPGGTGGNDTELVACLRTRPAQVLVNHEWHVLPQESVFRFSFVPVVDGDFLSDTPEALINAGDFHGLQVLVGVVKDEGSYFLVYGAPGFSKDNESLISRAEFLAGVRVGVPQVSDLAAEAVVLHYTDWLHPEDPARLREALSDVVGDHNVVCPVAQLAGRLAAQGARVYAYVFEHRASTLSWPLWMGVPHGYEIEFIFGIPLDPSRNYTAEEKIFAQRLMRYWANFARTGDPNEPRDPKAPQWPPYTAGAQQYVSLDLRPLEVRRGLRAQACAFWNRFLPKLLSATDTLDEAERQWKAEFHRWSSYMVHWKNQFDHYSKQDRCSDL
# Assay: Acetylcholinesterase (AChE) small molecule antagonists: fluorescence cell-based qHTS assay (AID 1347398; calls by dose curve)
# Details: SH-SY5Y cells; Potency: AChE activity; series mostly up to 115 µM
# Method in brief: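 Human SH-SY5Y cells were plated overnight at 37 C, exposed to compound for 30 min at 37 C, 5% CO2, then given acetylthiocholine plus Thiolite Green for 40 min at room temperature; thiocholine fluorescence (Ex/Em 490/520 nm) reports endogenous AChE activity.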
# Note: nearly all actives have a fitted effect of over 50% in size.
# Potency is the fitted concentration of half-maximal effect; tags give direction and shape of the fitted curve.
row,Compound,Potency
1,CN1C[C@H](C(=O)N[C@]2(C)O[C@@]3(O)[C@@H]4CCCN4C(=O)[C@H](Cc4ccccc4)N3C2=O)C=C2c3cccc4[nH]cc(c34)C[C@H]21,"inconclusive: 3.72 µM [inhibitor, full curve]"
2,Clc1ccc(C(Cl)(Cl)Cl)cc1Cl,"inconclusive: 78 µM [inhibitor, partial curve, poor fit]"
3,CS(=O)(=O)c1ccc(C(=O)C2C(=O)CCCC2=O)c([N+](=O)[O-])c1,"inconclusive: 7.23 µM [inhibitor, full curve]"
4,CN1CCc2cc(Cl)c(O)cc2[C@H]2c3ccccc3CC[C@@H]21,active: 21.9 µM
5,CC(=O)[O][Hg][c]1ccccc1,"active: 62.7 µM and active: 56.4 µM and inconclusive: 13.8 µM [inhibitor, partial curve, poor fit]"
6,O=C1C2CC=CCC2C(=O)N1SC(Cl)(Cl)Cl (stereo unspecified),"inconclusive: 78.3 µM [inhibitor, partial curve, poor fit]"

# Molecular target: Cytochrome P450 2D6 (Homo sapiens) (UniProt P10635)
# Chain of UniProt P10635 (P10635 whole entry, looked up): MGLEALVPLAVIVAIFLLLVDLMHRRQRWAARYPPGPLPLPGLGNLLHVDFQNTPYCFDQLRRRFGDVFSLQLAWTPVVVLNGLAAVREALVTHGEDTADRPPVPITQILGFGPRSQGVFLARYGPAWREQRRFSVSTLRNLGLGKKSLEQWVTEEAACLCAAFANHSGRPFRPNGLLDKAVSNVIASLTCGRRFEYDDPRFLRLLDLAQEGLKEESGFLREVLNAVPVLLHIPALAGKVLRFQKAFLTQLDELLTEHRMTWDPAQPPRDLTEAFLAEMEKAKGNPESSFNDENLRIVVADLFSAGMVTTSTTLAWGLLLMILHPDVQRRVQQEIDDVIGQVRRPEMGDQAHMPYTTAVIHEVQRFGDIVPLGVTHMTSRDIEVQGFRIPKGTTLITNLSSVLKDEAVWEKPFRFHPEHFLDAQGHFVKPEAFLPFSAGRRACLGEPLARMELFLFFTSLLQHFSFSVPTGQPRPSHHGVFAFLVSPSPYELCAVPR
# Assay: Cytochrome P450 Family 2 Subfamily D Member 6 (CYP2D6) small molecule antagonists: luciferase reporter qHTS assay (AID 1671196)
# Details: P450-Glo CYP2D6 enzyme assay, luciferin luminescence, 1 h; series mostly up to 115 µM
# Method in brief: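 Cell-free P450-Glo system: CYP2D6 with proluciferin substrate was pre-incubated with compound for 10 min, then reacted with NADPH regeneration for 1 h at room temperature. Luciferin product was detected after 20 min, and data were reported as relative luminescence units.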
row,Compound,Potency
1,C[C@H]1CC[C@@H]2[C@@H](C)[C@H]3[C@H](C[C@H]4[C@@H]5CC=C6CC(O[C@@H]7O[C@H](CO)[C@H](O)[C@H](O[C@@H]8O[C@H](CO)[C@@H](O)[C@H](O)[C@H]8O)[C@H]7O[C@H]7O[C@@H](C)[C@H](O)[C@@H](O)[C@H]7O)CC[C@]6(C)[C@H]5CC[C@]34C)N2C1 (stereo partly specified),"inconclusive: 46.2 µM [inhibitor, partial curve, poor fit]"
2,NNC(=S)NN,"active: 65 µM and inconclusive: 39.9 µM [inhibitor, partial curve, poor fit]"
3,C[C@H]1CCCC(=O)CCC/C=C/c2cc(O)cc(O)c2C(=O)O1,"inconclusive: 23.2 µM [inhibitor, partial curve, poor fit]"
4,C=CC(=O)OCC(COC(=O)C=C)(COC(=O)C=C)COC(=O)C=C,active: 28.3 µM
5,CC1(C)[C@H](C(=O)O[C@H](C#N)c2cccc(Oc3ccccc3)c2)[C@@H]1/C=C(\Cl)C(F)(F)F,"inconclusive: 29.4 µM [inhibitor, partial curve]"
6,CO/N=C(\C(=O)OC)c1ccccc1CO/N=C(\C)c1cccc(C(F)(F)F)c1,"inconclusive: 63.3 µM [inhibitor, partial curve, poor fit]"
7,CS(=O)(=O)c1ccc(C(=O)C2C(=O)CCCC2=O)c([N+](=O)[O-])c1,"inconclusive: 72.3 µM [inhibitor, partial curve, poor fit]"
8,O=C1C(Cl)=C(Cl)C(=O)c2ccccc21,active: 17.9 µM and active: 17.8 µM
9,Nc1ccc(-c2ccc(N)c(N)c2)cc1N,inconclusive: 15.9 µM [inhibitor]
10,S=C(SSC(=S)N1CCCCC1)N1CCCCC1,"inconclusive: 27.5 µM [inhibitor, partial curve]"
11,C=C(C)C(=O)[O][Sn]([CH2]CCC)([CH2]CCC)[CH2]CCC,active: 2.24 µM
12,CN(C)[C@@H]1C(=O)C(C(N)=O)=C(O)[C@@]2(O)C(=O)C3=C(O)c4c(O)cccc4[C@@](C)(O)[C@H]3C[C@@H]12,active: 31.8 µM and inactive and active: 19.5 µM
13,CCOP(=S)(OCC)O/N=C(\C#N)c1ccccc1,"inconclusive: 34.7 µM [inhibitor, partial curve, poor fit]"
14,O=C1C2CC=CCC2C(=O)N1SC(Cl)(Cl)Cl (stereo unspecified),"inconclusive: 15.8 µM [inhibitor, full curve, poor fit]"
15,O=C(Nc1ccc(Br)cc1)c1cc(Br)cc(Br)c1O,"inconclusive: 35.5 µM [inhibitor, partial curve]"
16,CCCCCCCCCC(CC)c1ccc(S(=O)(=O)O)cc1 (stereo unspecified),"inconclusive: 56.7 µM [inhibitor, partial curve, poor fit] and active: 50.2 µM"
17,C1=Cc2cccc3cccc1c23,"inconclusive: 35 µM [inhibitor, partial curve]"
18,CC1CCC(C(C)C)C(OC(=O)c2ccccc2N)C1 (stereo unspecified),"inconclusive: 62.4 µM [inhibitor, partial curve]"
19,O=C(O)c1cc[c]([Hg][Cl])cc1,active: 12.6 µM
20,O=C1c2ccccc2C(=O)N1SC(Cl)(Cl)Cl,"inconclusive: 79.6 µM [inhibitor, single point]"
